This experiment has as its system primary human hepatic stellate cells (donor 1). The experiment in a line: scaled lipid accumulation score (0 = DMSO-like, 1 = nortriptyline-like); higher = stronger HSC inactivation (lipid re-accumulation), active = hit call of the paper. The conditions noted are these: 48 h. The procedure:
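Primary lipid accumulation screen in primary human hepatic stellate cell myofibroblasts (donor 1, passage 8) in 384-well plates. 100 nL of library compound was pin-transferred into 30 µL medium in duplicate, and cells were treated for 48 h. The 'Scaled' score combines distance from plate baseline, toxicity and reproducibility penalties, and is normalised to nortriptyline (positive) and DMSO (negative) controls on each plate. A hit is defined as scaled >0.85 or among the top 3 wells per plate.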

Setting [1] is: library stock concentration: 10 mM.
Setting [2] is: library stock concentration: 3.33 mM.
The mark [3] stands for this setting: library stock concentration: 400 uM.
The mark [4] stands for this setting: library stock concentration: 2 mM.
[5] abbreviates: library stock concentration: 1 mM.

“And” between values parts separate entries of the source, which are not always exact repeats. Equal values may be shown once. Where a name gives a salt, the structure may show the parent alone. Among all 5,800 compounds or so, about 620 (11%) showed activity.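 Rule for the calls: active = score above a cut-off or among the top three wells of a plate; in these data no inactive exceeds 0.85.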 The entries are a selection whose mix differs from that of the whole data set.

`CN(C)c1ccc(C(=C2C=CC(=[N+](C)C)C=C2)c2ccc(N(C)C)cc2)cc1` [Gentian violet]: the “scaled lipid accumulation score” value by setting is: (library stock concentration: 4.9 mM) inactive: 0.678; under setting [1], inactive: ≤ 0. Turning to `CN(C)c1ccc(C(=C2C=CC(=[N+](C)C)C=C2)c2ccc(N(C)C)cc2)cc1` [Crystal Violet], the “scaled lipid accumulation score” value under setting [2] was inactive: ≤ 0 and the “scaled lipid accumulation score” value under setting [1] is inactive: 0.611. For `CC(C(=O)O)c1ccc2c(c1)CC(=O)c1ccccc1S2` (stereo unspecified) [Zaltoprofen], in that order: inactive: ≤ 0 and inactive: ≤ 0. With `Oc1cc2c(cc1O)[C@@H]1c3ccc(O)c(O)c3OC[C@]1(O)C2` [Hematoxylin], the “scaled lipid accumulation score” value was inactive: 0.024 under setting [2] and inactive: ≤ 0 under setting [1]. As for `CN[C@H]1CC[C@@H](c2ccc(Cl)c(Cl)c2)c2ccccc21` [Sertraline], the “scaled lipid accumulation score” value is active: 1.23.

On to `Cc1nc(Nc2ncc(C(=O)Nc3c(C)cccc3Cl)s2)cc(N2CCN(CCO)CC2)n1`, for which the “scaled lipid accumulation score” value was inactive: 0.775 under setting [3] and inactive: 0.677 under setting [1]. Take `Cc1nc(Nc2ncc(C(=O)Nc3c(C)cccc3Cl)s2)cc(N2CCN(CCO)CC2)n1` [Dasatinib]: the “scaled lipid accumulation score” value runs as follows: (library stock concentration: 80 uM) inactive: ≤ 0; under setting [3], inactive: 0.238; under setting [4], inactive: 0.602; under setting [2], inactive: 0.43; under setting [1], inactive: 0.646 and inactive: 0.707. As to `CCN(CCO)CCCC(C)Nc1ccnc2cc(Cl)ccc12` (stereo unspecified) [Hydroxychloroquine sulfate], the “scaled lipid accumulation score” value under setting [1] was inactive: 0.161. For the compound `CCOC(=O)c1c(CSc2ccccc2)n(C)c2cc(Br)c(O)c(CN(C)C)c12` [Arbidol HCl], the “scaled lipid accumulation score” value was inactive: 0.128 under setting [2] and inactive: 0.783 under setting [1].

On to `CCN1CCN(Cc2ccc(-c3cc4c(N[C@H](C)c5ccccc5)ncnc4[nH]3)cc2)CC1`, for which the “scaled lipid accumulation score” value reads like this: under setting [2], inactive: 0.668; under setting [1], inactive: 0.465. For `CC(C)c1ccc2c(c1)c(SC(C)(C)C)c(CC(C)(C)C(=O)O)n2Cc1ccc(Cl)cc1` [MK 886 (sodium salt)], under setting [5], the “scaled lipid accumulation score” value is inactive: ≤ 0. Regarding `CC(C)c1ccc2c(c1)c(SC(C)(C)C)c(CC(C)(C)C(=O)O)n2Cc1ccc(Cl)cc1`, the “scaled lipid accumulation score” value under setting [1] is inactive: ≤ 0 and inactive: 0.009. With `CC(C)CCOc1ccc(N)cc1` [CP 24,879 (hydrochloride)], the “scaled lipid accumulation score” value under setting [5] is inactive: ≤ 0. For `Cl.N=C(N)NCCC[C@H](N)C(=O)O`, the “scaled lipid accumulation score” value under setting [1] is inactive: ≤ 0.

As to `Nc1nc(OCc2ccccc2)c2nc[nH]c2n1` [O6-benzylguanine], the “scaled lipid accumulation score” value under setting [1] was inactive: 0.24. Consider `CC1=C(/C=C/C(C)=C/C=C/C(C)=C\C(=O)O)C(C)(C)CCC1` [13-cis retinoic acid], for which the “scaled lipid accumulation score” value under setting [5] is inactive: ≤ -0.003. In the case of `CC1=C(/C=C/C(C)=C/C=C/C(C)=C\C(=O)O)C(C)(C)CCC1` [13-cis-retinoic acid], the “scaled lipid accumulation score” value under setting [1] is inactive: ≤ 0. For `CC1=C(/C=C/C(C)=C/C=C/C(C)=C\C(=O)O)C(C)(C)CCC1` [Isotretinoin], the “scaled lipid accumulation score” value was inactive: ≤ 0. Also, the “scaled lipid accumulation score” value under setting [2] is inactive: ≤ 0. The “scaled lipid accumulation score” value under setting [1] was inactive: 0.098 and inactive: 0.099. Regarding `CC1=C(/C=C/C(C)=C/C=C/C(C)=C\C(=O)O)C(C)(C)CCC1` [Isotretinon], the “scaled lipid accumulation score” value is, setting by setting: (library stock concentration: 6.7 mM) inactive: 0.034; under setting [1], inactive: ≤ 0. As to `CC/C(=C(/CC)c1ccc(O)cc1)c1ccc(O)cc1` [Diethylstilbestrol], the “scaled lipid accumulation score” value is inactive: ≤ 0. Moreover, under setting [5], the “scaled lipid accumulation score” value was inactive: ≤ 0. The “scaled lipid accumulation score” value under setting [2] is inactive: ≤ 0. Besides, the “scaled lipid accumulation score” value (library stock concentration: 7.5 mM) is inactive: ≤ 0 and inactive: ≤ -0.001. Besides, the “scaled lipid accumulation score” value under setting [1] was inactive: ≤ 0.

For the compound `CC(C)(Sc1ccc(CCN(CCCCC2CCCCC2)C(=O)NC2CCCCC2)cc1)C(=O)O`, the “scaled lipid accumulation score” value was inactive: 0.019 under setting [5]; inactive: ≤ -0.07 and inactive: ≤ -0.006 under setting [1]. `NC1C=CC=C(C(=O)O)C1` (stereo unspecified) [Gabaculine hydrochloride]: under setting [1], the “scaled lipid accumulation score” value was inactive: ≤ 0.

For `NS(=O)(=O)c1ccc(N=Nc2c(O)[nH]c3ccc(Br)cc23)cc1` [Cdk2 Inhibitor II], the “scaled lipid accumulation score” value under setting [2] is inactive: ≤ 0. Turning to `CCCCC[C@H](O)/C=C/[C@H]1C=CC(=O)[C@@H]1CCCCCCC(=O)OCC` [Prostaglandin A1 ethyl ester], the “scaled lipid accumulation score” value under setting [5] was inactive: ≤ 0. Consider `Cc1cc(-c2ccccc2)nnc1NCCN1CCOCC1` [Minaprine dihydrochloride], for which the “scaled lipid accumulation score” value was inactive: 0.11. Regarding `Cc1cc(-c2ccccc2)nnc1NCCN1CCOCC1` [Minaprine hydrochloride], the “scaled lipid accumulation score” value (library stock concentration: 5.4 mM) was inactive: ≤ 0 and the “scaled lipid accumulation score” value under setting [1] is inactive: 0.161. As for `NC(N)=Nc1nc(CSCC/C(N)=N/S(N)(=O)=O)cs1`, the “scaled lipid accumulation score” value under setting [1] is inactive: 0.012. For the compound `NC(N)=Nc1nc(CSCC/C(N)=N/S(N)(=O)=O)cs1` [Famotidine], the “scaled lipid accumulation score” value was inactive: ≤ 0. The “scaled lipid accumulation score” value under setting [2] is inactive: ≤ 0. The “scaled lipid accumulation score” value (library stock concentration: 5.9 mM) is inactive: ≤ -0.006 and inactive: ≤ 0. The “scaled lipid accumulation score” value under setting [1] is inactive: ≤ 0 and inactive: ≤ -0.07. In the case of `Nc1ccc(CCNc2ncnc3c2ncn3C2OC(CO)C(O)C2O)cc1` (stereo unspecified) [N6-2-(4-Aminophenyl)ethyladenosine], under setting [1], the “scaled lipid accumulation score” value is inactive: 0.102. As for `COc1ccc(-c2ccc3c(N4CCOCC4)nc(N4C[C@@H](C)O[C@@H](C)C4)nc3n2)cc1CO`, the “scaled lipid accumulation score” value was inactive: ≤ -0.005 under setting [3]; inactive: ≤ -0.005 under setting [4]; inactive: ≤ 0 under setting [2]; inactive: ≤ 0 and inactive: ≤ -0.005 under setting [1].

For the origin of these results see the supplement of paper PMC9135407.
